Measurements published in PMC8354638.
Results are given in words; binding and its absence hold for the method and conditions named. In cells and extracts the contact can be indirect. Some entries that bind do so weakly or less than the wild type. Sequences can lack the tags named with a protein.

Key:
Assay in all cases: co-IP; transfected 293T cell lysates (modified EBC buffer), IP with GFP antibody beads, western blot with Myc, GFP, FOP or VPRBP antibodies
[1] = biological target: T1, GFP-CEP78 middle (aa203-403) (human) (UniProt Q5JTW2)
T1 sequence: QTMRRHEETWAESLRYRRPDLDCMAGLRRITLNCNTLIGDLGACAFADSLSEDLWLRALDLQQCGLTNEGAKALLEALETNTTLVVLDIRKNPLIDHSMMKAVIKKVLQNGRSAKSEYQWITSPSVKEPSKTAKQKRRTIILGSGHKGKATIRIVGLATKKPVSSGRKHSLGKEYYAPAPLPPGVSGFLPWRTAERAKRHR

[2] = biological target: T2, GFP-CEP78 (human) (UniProt Q5JTW2)
T2 sequence: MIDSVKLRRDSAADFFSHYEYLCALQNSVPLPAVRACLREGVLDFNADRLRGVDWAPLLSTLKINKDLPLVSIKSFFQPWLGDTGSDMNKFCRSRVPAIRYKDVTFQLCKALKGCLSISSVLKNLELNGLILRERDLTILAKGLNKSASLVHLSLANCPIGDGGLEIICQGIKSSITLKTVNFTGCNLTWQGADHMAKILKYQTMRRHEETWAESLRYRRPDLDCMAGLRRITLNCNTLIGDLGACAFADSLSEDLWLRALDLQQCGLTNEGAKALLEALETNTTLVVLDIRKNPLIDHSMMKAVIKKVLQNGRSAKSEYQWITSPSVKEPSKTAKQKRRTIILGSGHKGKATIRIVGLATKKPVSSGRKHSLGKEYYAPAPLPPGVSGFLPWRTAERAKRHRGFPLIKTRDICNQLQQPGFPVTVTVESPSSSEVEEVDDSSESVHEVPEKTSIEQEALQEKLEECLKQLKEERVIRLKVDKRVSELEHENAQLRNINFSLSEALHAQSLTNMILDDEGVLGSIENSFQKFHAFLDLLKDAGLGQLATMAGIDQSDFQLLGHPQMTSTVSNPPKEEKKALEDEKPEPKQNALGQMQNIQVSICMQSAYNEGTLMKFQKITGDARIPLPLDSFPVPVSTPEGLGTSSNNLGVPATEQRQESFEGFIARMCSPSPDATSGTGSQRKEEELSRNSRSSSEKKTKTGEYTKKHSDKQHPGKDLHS

[3] = biological target: T3, GFP-CEP78 C-terminus (aa395-722) (human) (UniProt Q5JTW2)
T3 sequence: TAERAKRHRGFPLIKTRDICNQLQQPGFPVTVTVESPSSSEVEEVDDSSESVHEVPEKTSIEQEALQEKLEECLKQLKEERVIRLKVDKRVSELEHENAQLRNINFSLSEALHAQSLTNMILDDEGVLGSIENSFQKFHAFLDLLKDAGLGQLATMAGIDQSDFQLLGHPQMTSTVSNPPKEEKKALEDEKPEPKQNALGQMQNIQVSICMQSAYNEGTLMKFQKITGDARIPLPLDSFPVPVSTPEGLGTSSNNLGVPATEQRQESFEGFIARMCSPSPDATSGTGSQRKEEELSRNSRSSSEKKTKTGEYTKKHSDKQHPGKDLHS

[4] = biological target: T4, GFP-CEP78 N-terminus (aa2-217) (human) (UniProt Q5JTW2)
T4 sequence: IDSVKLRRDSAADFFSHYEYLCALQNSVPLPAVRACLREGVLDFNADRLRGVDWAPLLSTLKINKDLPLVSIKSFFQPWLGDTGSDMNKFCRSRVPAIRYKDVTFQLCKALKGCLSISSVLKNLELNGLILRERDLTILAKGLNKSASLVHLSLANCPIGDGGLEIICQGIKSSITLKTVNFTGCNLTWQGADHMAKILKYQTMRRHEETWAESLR

[5] = biological target: T5, GFP-CEP78 N-terminus plus middle (aa2-403) (human) (UniProt Q5JTW2)
T5 sequence: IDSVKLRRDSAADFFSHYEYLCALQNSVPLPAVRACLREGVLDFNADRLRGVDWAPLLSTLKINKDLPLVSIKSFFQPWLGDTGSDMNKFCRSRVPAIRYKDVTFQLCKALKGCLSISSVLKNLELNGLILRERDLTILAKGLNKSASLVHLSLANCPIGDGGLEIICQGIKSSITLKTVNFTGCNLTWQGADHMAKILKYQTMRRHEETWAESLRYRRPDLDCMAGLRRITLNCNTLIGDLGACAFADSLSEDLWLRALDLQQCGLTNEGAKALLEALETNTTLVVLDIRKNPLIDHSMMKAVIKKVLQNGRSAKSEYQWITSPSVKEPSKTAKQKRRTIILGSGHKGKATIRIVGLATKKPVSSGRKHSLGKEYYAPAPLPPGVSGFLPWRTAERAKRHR

B1: Myc-CEP350 N-terminus (aa1-983) (domain or fragment, UniProt Q5VT06 1-983)
chain: MRSSKSKEVPLPNPRNSQSKDTVQADITTSWDALSQTKAALRHIENKLEVAPTSTAVCDSVMDTKKSSTSATRKISRKDGRYLDDSWVNAPISKSTKSRKEKSRSPLRATTLESNVKKNNRVEFREPLVSYREIHGAPSNFSSSHLESKHVYCVDVNEEKTESGNWMIGSREERNIRSCDFESSQSSVINDTVVRFLNDRPAIDALQNSECLIRMGASMRTEEEMPNRTKGSENNLKLSVNNMAHDTDPKALRLTDSSPSSTSTSNSQRLDILKRRQHDVKLEKLKERIRKQWEHSEETNGRGQKLGHIDHPVMVVNVDNSVTAKVRKVATAPPAPAYKGFNPSETKIRTPDGKVWQEAEFQNMSRELYRDLALHFADDISIKEKPAEKSKEKKVVKPVRKVQKVAQLSSTECRTGSSHLISTSSWRDGQKLVKKILGPAPRMEPKEQRTASSDRGGRERTAKSGGHIGRAESDPRLDVLHRHLQRNSERSRSKSRSENNIKKLASSLPDNKQEENTALNKDFLPIEIRGILDDLQLDSTAHTAKQDTVELQNQKSSAPVHAPRSHSPVKRKPDKITANEDPPVISKRRHYDTDEVRQYIVRQQEERKRKQNEEKKAQKEATEQKNKRLQELYRKQKEAFTKVKNVPPSEPSATRRLQETYSKLLLEKTLLEEPSHQHVTQETQAKPGYQPSGESDKENKVQERPPSASSSSDMSLSEPPQPLARKDLMESTWMQPERLSPQVHHSQPQPFAGTAGSLLSHLLSLEHVGILHKDFESILPTRKNHNMASRPLTFTPQPYVTSPAAYTDALLKPSASQYKSKLDRIEALKATAASLSSRIESEAKKLAGASINYGSAWNTEYDVQQAPQEDGPWTKAVTPPVKDDNEDVFSARIQKMLGSCVSHATFDDDLPGVGNLSEFKKLPEMIRPQSAISSFRVRSPGPKPEGLLAQLCKRQTDSSSSDMQACSQDKAKISLGSSIDSVS
- binding [1]: no binding
- binding [2]: binds
- binding [3]: binds
- binding [4]: no binding
- binding [5]: binds weakly
